Experimental data published in PubChem BioAssay AID602310 (National Center for Advancing Translational Sciences (NCATS), 2012).
Where “and” joins values, the source holds several entries; their conditions need not be identical. Equal entries are not always repeated. About 310 (0.076%) of roughly 410,000 compounds were called active. Inconclusive means that the source gave no clear call. Such entries were picked first, then a sample of the others. Calls follow the shape of the dose curve; as a rule, active = well fitted curve in the direction sought with a large enough effect; inconclusive = small, poorly fitted or top-dose-only effect; inactive = flat fitted curve, though single readings scatter. Where the call is inconclusive, the potency comes from a doubtful curve fit.

Molecular target: DNA dC->dU-editing enzyme APOBEC-3G (Homo sapiens) (UniProt Q9HC16)
Experiment: qHTS for Inhibitors of Vif-A3G Interactions: qHTS; also: nearly all actives have a fitted effect of over 60% in size;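 as to activity, negative = active: hits raise eYFP signal because A3G escapes Vif-driven loss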
Conditions: HeLa A3G-eYFP + Vif (tagged APOBEC3G with the HIV-1 protein that degrades it), YFP fluorescence, overnight; series mostly up to 46.1 µM; activity, negative = active: at the top concentration
In short: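 HeLa cells stably expressing Vif and C-terminally eYFP-tagged A3G, seeded overnight at 37 deg C, then exposed to compound by pintool overnight at 37 deg C. Rise in yellow fluorescence (Ex 488/Em 500-530, Acumen) marks blocked Vif-driven A3G degradation.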
% is scaled to controls: 0 for no effect and ±100 for the full control effect; potency is read from the fitted curve at half-maximal effect; tags tell the direction and shape of the fitted curve.

Chain of UniProt Q9HC16 (Q9HC16 whole entry, looked up): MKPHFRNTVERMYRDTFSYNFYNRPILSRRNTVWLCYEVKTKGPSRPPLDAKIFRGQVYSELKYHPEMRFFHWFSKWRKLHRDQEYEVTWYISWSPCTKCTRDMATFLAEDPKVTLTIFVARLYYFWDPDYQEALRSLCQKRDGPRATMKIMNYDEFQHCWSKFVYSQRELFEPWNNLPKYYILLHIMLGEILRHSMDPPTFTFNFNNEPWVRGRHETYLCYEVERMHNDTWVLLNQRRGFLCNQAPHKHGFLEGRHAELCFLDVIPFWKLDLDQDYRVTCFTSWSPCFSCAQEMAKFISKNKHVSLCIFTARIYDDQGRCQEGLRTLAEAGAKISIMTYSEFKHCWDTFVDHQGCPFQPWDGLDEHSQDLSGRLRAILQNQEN

Row | Compound | activity, negative = active | Potency
1 | O=C1C(=Cc2ccco2)C(=O)c2ccccc21 | inactive: -0.972% | –
2 | COC(=O)Nc1ccc(S(=O)(=O)Nc2cccc3ccccc23)cc1 | – | inconclusive: 20 µM [inhibitor, single point]
3 | O=C(COc1ccc2ccccc2c1)Nc1ccc(O)c(-c2nc3ccccc3o2)c1 | inactive: -0.562% | –
4 | COC(=O)c1cn(C(=O)c2ccc(C)cc2C)c2ccccc12 | – | inconclusive: 6.31 µM [inhibitor, single point]
5 | Cc1nc2c(OCc3ccc(C(F)(F)F)cc3)cccn2c1N(C)Cc1cccs1 | – | inconclusive: 35.5 µM [inhibitor, single point]
6 | CCn1cnc2c(=O)oc3ccc(S(=O)(=O)N4CCN(c5cc(C)ccc5C)CC4)cc3c21 | inactive: 1.34% | –
7 | O=C(N/N=C/c1ccc(Cl)cc1)c1sccc1OCc1ccc(F)cc1 | – | inconclusive: 0.562 µM [inhibitor, full curve, poor fit]
8 | CSc1ccccc1NC(=O)CN(C)CC(=O)Nc1ccccc1F | inactive: -11.2% | –
9 | O=C(N/N=C\c1ccc(Br)o1)C1COc2ccccc2O1 (configuration not stated) | – | inconclusive: 25.1 µM [inhibitor, single point]
10 | Cc1ccccc1/C=c1\s/c(=C\C(=O)C(C)(C)C)[nH]c1=O | – | inconclusive: 2.82 µM [inhibitor, full curve, poor fit]
11 | O=C(OC12CC3CC(CC(C3)C1)C2)c1ccc(NCc2cc(O)ccc2O)cc1 | – | active: 6.31 µM
12 | COc1ccc(S(=O)(=O)Nc2cc(C(=O)NC(C)C)ccc2N2CCOCC2)cc1 | – | inconclusive: 35.5 µM [inhibitor, single point]
13 | CCCCNC(=O)Cn1c(SCc2ccccc2C)nc2ccncc21 | inactive: -0.972% | –
14 | FC(F)(F)c1cccc(-c2nc3nc(Cl)c(Cl)nc3[nH]2)c1 | – | inconclusive: 22.4 µM [inhibitor, single point]
15 | COc1ccc(NC(=O)c2nc[nH]c2C(=O)Nc2ccccc2C)cc1 | – | inconclusive: 1.12 µM [inhibitor, full curve, poor fit]
16 | O=C(CSc1ncnc2nc[nH]c12)c1ccc(Cl)cc1 | – | inconclusive: 8.91 µM [inhibitor, partial curve]
17 | Cc1ccc(CN2CCCCC2C(=O)Nc2ccc(Oc3cccnc3)cc2)o1 (configuration not stated) | – | inconclusive: 3.98 µM [inhibitor, full curve, poor fit]
18 | COC(=O)c1c(C)oc2c1cc(NS(=O)(=O)c1cccs1)c1ccccc12 | – | inconclusive: 14.1 µM [inhibitor, single point]
19 | COc1cc(-c2noc(C)c2C#Cc2ccsc2)cc(OC)c1OC | – | inconclusive: 35.5 µM [inhibitor, partial curve, poor fit]
20 | COc1cc(C2c3cc4c(cc3OC(C)(N3CCCC3)C2C)OCO4)cc(OC)c1OC (configuration not stated) | – | inconclusive: 0.631 µM [inhibitor, full curve, poor fit]
21 | COC(=O)c1cc2ccsc2n1CC(=O)Nc1cc(Cl)ccc1OC | – | inconclusive: 1.78 µM [inhibitor, full curve, poor fit]

Row | Compound | activity, negative = active | Potency
22 | O=C(NC(=S)Nc1ccc2c(c1)OCCO2)c1ccc(F)cc1Cl | inactive: 1.8% | –
23 | Cc1ccc(C=Nc2ccccc2C(N)=O)s1 | – | inconclusive: 3.55 µM [inhibitor, full curve, poor fit]
24 | CC(=O)Nc1cccc(C(=O)/C=C/c2ccc(C)cc2)c1 | – | inconclusive: 12.6 µM [inhibitor, single point]
25 | COC(=O)c1[nH]c(C)c(/C(O)=C2\C(=O)C(=O)N(CCN(C)C)C2c2ccccc2OC)c1C (configuration not stated) | – | inconclusive: 22.4 µM [inhibitor, single point]
26 | O=C(Nc1ccccc1Cl)C(Cl)C(=O)c1ccccc1 (configuration not stated) | inactive: 1.39% | –
27 | CCOC(=O)[C@H]1[C@H]2COc3ccc(Br)cc3[C@H]2N2C(=O)CN(Cc3ccc(C)cc3)C(=O)[C@@]12C | inactive: 4.76% | –
28 | CCCNC(=O)c1ccc2c(=O)c(O)c(-c3ccsc3)[nH]c2c1 | – | inconclusive: 35.5 µM [inhibitor, single point]
29 | CCOC(=O)c1c(C)c(C(=O)Nc2ccc3c(c2)OCCO3)c(C)n1CC | – | inconclusive: 7.08 µM [inhibitor, partial curve, poor fit]
30 | c1ccc(OCCNc2nc(NCC3CC3)nc3cc(-c4ccccc4)sc23)cc1 | – | inconclusive: 35.5 µM [inhibitor, single point]
31 | O=c1c2sccc2nc(SCc2cc(=O)n3cc(Br)ccc3n2)n1Cc1ccccn1 | inactive: -4.03% | –
32 | CC(C)OC(=O)c1ccc(NCc2cc(O)ccc2O)cc1 | – | inconclusive: 22.4 µM [inhibitor, single point]
33 | Cc1cc(C)c2cc(C)c(SCC(=O)NCc3ccco3)nc2c1 | – | inconclusive: 5.62 µM [inhibitor, single point]
34 | Cc1c([N+](=O)[O-])cnc(Sc2ccccc2)c1[N+](=O)[O-] | – | inconclusive: 35.5 µM [inhibitor, single point]
35 | Oc1ccc(NCc2ccccc2OCc2ccccc2)cc1 | – | inconclusive: 20 µM [inhibitor, single point] and inconclusive: 35.5 µM [inhibitor, single point]
36 | CCOc1cc(C(=O)N/N=C/c2ccsc2)cc(OCC)c1OCC | – | inconclusive: 11.2 µM [inhibitor, partial curve, poor fit]
37 | CC(C)(C)C(=O)NC(=S)Nc1ccc(S(=O)(=O)Nc2nccs2)cc1 | inactive: -7.09% | –
38 | COc1ccc(C(=O)N2c3ccccc3C=CC2C#N)cc1 (configuration not stated) | – | inconclusive: 25.1 µM [inhibitor, single point]
39 | COc1ccc(-c2sc3ccc(OC)cc3c2C#Cc2cncn2C)cc1 | – | inconclusive: 22.4 µM [inhibitor, single point]
40 | Cn1c(O)c(/C=N/NC(=O)c2cc3ccccc3cc2O)c2ccccc21 | – | inconclusive: 35.5 µM [inhibitor, single point]
41 | Cn1c(SCC(=O)NC(=O)NCc2ccco2)nnc1C(F)(F)F | – | inconclusive: 3.55 µM [inhibitor, single point]
42 | Cc1ccc(N(CC(=O)NCCSc2ccccc2)S(=O)(=O)c2ccc(F)cc2)cc1 | – | inconclusive: 20 µM [inhibitor, single point]
